# In the supplement of paper PMC8728848:
# The other results are listed elsewhere or left out.
# Tests used:
# Experiment in all cases: glycan array binding signal (z-score within array); higher = stronger binding
# Settings in all cases: glycan notation: IUPAC condensed, linker removed; mutation: Y228A
# [1] = target: Neu5Ac(a2-3)Gal(b1-4)GlcNAc(b1-3)[Neu5Ac(a2-3)Gal(b1-4)GlcNAc(b1-6)]GalNAc
# Procedure, shortened: (§1)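 The binding signal is a Z-score computed within each array and averaged over linkers. Arrays of the same protein sequence at different concentrations or buffers were also averaged together. Data originate from 3228 arrays in the Consortium for Functional Glycomics database, kept only where the protein sequence was available.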
# [2] = target: Neu5Ac(a2-3)Gal(b1-4)GlcNAc(b1-6)GalNAc
# Procedure, shortened: as §1
# [3] = target: Neu5Ac(a2-3)Gal(b1-4)GlcNAc(b1-6)[Gal(b1-3)]GalNAc
# Procedure, shortened: as §1
# [4] = target: Neu5Ac(a2-3)Gal(b1-4)GlcNAc(b1-6)[Neu5Ac(a2-3)Gal(b1-3)]GalNAc
# Procedure, shortened: as §1
# [5] = target: Neu5Ac(a2-3)Gal(b1-4)GlcNAc6S
# Procedure, shortened: as §1
# [6] = target: Neu5Ac(a2-3)Gal(b1-4)[Fuc(a1-3)]GlcNAc
# Procedure, shortened: as §1
# [7] = target: Neu5Ac(a2-3)Gal(b1-4)[Fuc(a1-3)]GlcNAc(b1-2)Man
# Procedure, shortened: as §1
# [8] = target: Neu5Ac(a2-3)Gal(b1-4)[Fuc(a1-3)]GlcNAc(b1-3)Gal
# Procedure, shortened: as §1
# [9] = target: Neu5Ac(a2-3)Gal(b1-4)[Fuc(a1-3)]GlcNAc(b1-3)Gal(b1-4)GlcNAc
# Procedure, shortened: as §1
# [10] = target: Neu5Ac(a2-3)Gal(b1-4)[Fuc(a1-3)]GlcNAc(b1-3)Gal(b1-4)[Fuc(a1-3)]GlcNAc(b1-3)Gal(b1-4)[Fuc(a1-3)]GlcNAc
# Procedure, shortened: as §1
# [11] = target: Neu5Ac(a2-3)Gal(b1-4)[Fuc(a1-3)]GlcNAc(b1-3)GalNAc
# Procedure, shortened: as §1
# [12] = target: Neu5Ac(a2-3)Gal(b1-4)[Fuc(a1-3)]GlcNAc(b1-6)[Gal(b1-3)]GalNAc
# Procedure, shortened: as §1
# [13] = target: Neu5Ac(a2-3)Gal(b1-4)[Fuc(a1-3)]GlcNAc(b1-6)[Neu5Ac(a2-3)Gal(b1-3)]GalNAc
# Procedure, shortened: as §1
# [14] = target: Neu5Ac(a2-3)Gal(b1-4)[Fuc(a1-3)]GlcNAc6S
# Procedure, shortened: as §1
# [15] = target: Neu5Ac(a2-3)Gal6S(b1-4)GlcNAc
# Procedure, shortened: as §1
# [16] = target: Neu5Ac(a2-3)Gal6S(b1-4)[Fuc(a1-3)]GlcNAc
# Procedure, shortened: as §1
# Neu5Ac(a2-3)GalNAc = target: Neu5Ac(a2-3)GalNAc
# Procedure, shortened: as §1
# [17] = target: Neu5Ac(a2-3)GalNAc(b1-4)GlcNAc
# Procedure, shortened: as §1
# [18] = target: Neu5Ac(a2-3)[GalNAc(b1-4)]Gal(b1-4)Glc
# Procedure, shortened: as §1
# [19] = target: Neu5Ac(a2-3)[GalNAc(b1-4)]Gal(b1-4)GlcNAc
# Procedure, shortened: as §1
# [20] = target: Neu5Ac(a2-3)[GalNAc(b1-4)]Gal(b1-4)GlcNAc(b1-3)GalNAc
# Procedure, shortened: as §1
# [21] = target: Neu5Ac(a2-3)[Neu5Ac(a2-6)]GalNAc
# Procedure, shortened: as §1
# Neu5Ac(a2-6)Gal = target: Neu5Ac(a2-6)Gal
# Procedure, shortened: as §1
# [22] = target: Neu5Ac(a2-6)Gal(b1-3)GlcNAc(b1-3)[Gal(b1-4)GlcNAc(b1-6)]Gal(b1-4)Glc
# Procedure, shortened: as §1
# Neu5Ac(a2-6)Gal(b1-4)Glc = target: Neu5Ac(a2-6)Gal(b1-4)Glc
# Procedure, shortened: as §1
# [23] = target: Neu5Ac(a2-6)Gal(b1-4)GlcNAc
# Procedure, shortened: as §1
# [24] = target: Neu5Ac(a2-6)Gal(b1-4)GlcNAc(b1-2)Man
# Procedure, shortened: as §1
# [25] = target: Neu5Ac(a2-6)Gal(b1-4)GlcNAc(b1-2)Man(a1-3)Man(b1-4)GlcNAc(b1-4)GlcNAc
# Procedure, shortened: as §1
# [26] = target: Neu5Ac(a2-6)Gal(b1-4)GlcNAc(b1-2)Man(a1-3)[Gal(b1-4)GlcNAc(b1-2)Man(a1-6)]Man(b1-4)GlcNAc(b1-4)GlcNAc
# Procedure, shortened: as §1
# [27] = target: Neu5Ac(a2-6)Gal(b1-4)GlcNAc(b1-2)Man(a1-3)[GlcNAc(b1-2)Man(a1-6)]Man(b1-4)GlcNAc(b1-4)GlcNAc
# Procedure, shortened: as §1
# [28] = target: Neu5Ac(a2-6)Gal(b1-4)GlcNAc(b1-2)Man(a1-3)[GlcNAc(b1-4)][Neu5Ac(a2-6)Gal(b1-4)GlcNAc(b1-2)Man(a1-6)]Man(b1-4)GlcNAc(b1-4)GlcNAc
# Procedure, shortened: as §1
# [29] = target: Neu5Ac(a2-6)Gal(b1-4)GlcNAc(b1-2)Man(a1-3)[Man(a1-6)]Man(b1-4)GlcNAc(b1-4)GlcNAc
# Procedure, shortened: as §1
# [30] = target: Neu5Ac(a2-6)Gal(b1-4)GlcNAc(b1-2)Man(a1-3)[Neu5Ac(a2-3)Gal(b1-4)GlcNAc(b1-2)Man(a1-6)]Man(b1-4)GlcNAc(b1-4)GlcNAc
# Procedure, shortened: as §1
# [31] = target: Neu5Ac(a2-6)Gal(b1-4)GlcNAc(b1-2)Man(a1-3)[Neu5Ac(a2-6)Gal(b1-4)GlcNAc(b1-2)Man(a1-6)]Man(b1-4)GlcNAc(b1-4)GlcNAc
# Procedure, shortened: as §1
# [32] = target: Neu5Ac(a2-6)Gal(b1-4)GlcNAc(b1-2)Man(a1-3)[Neu5Ac(a2-6)Gal(b1-4)GlcNAc(b1-2)Man(a1-6)]Man(b1-4)GlcNAc(b1-4)[Fuc(a1-6)]GlcNAc
# Procedure, shortened: as §1
# [33] = target: Neu5Ac(a2-6)Gal(b1-4)GlcNAc(b1-2)Man(a1-6)Man(b1-4)GlcNAc(b1-4)GlcNAc
# Procedure, shortened: as §1
# [34] = target: Neu5Ac(a2-6)Gal(b1-4)GlcNAc(b1-2)Man(a1-6)[Gal(b1-4)GlcNAc(b1-2)Man(a1-3)]Man(b1-4)GlcNAc(b1-4)GlcNAc
# Procedure, shortened: as §1
# [35] = target: Neu5Ac(a2-6)Gal(b1-4)GlcNAc(b1-2)Man(a1-6)[GlcNAc(b1-2)Man(a1-3)]Man(b1-4)GlcNAc(b1-4)GlcNAc
# Procedure, shortened: as §1
# [36] = target: Neu5Ac(a2-6)Gal(b1-4)GlcNAc(b1-2)Man(a1-6)[Man(a1-3)]Man(b1-4)GlcNAc(b1-4)GlcNAc
# Procedure, shortened: as §1
# [37] = target: Neu5Ac(a2-6)Gal(b1-4)GlcNAc(b1-2)[Neu5Ac(a2-6)Gal(b1-4)GlcNAc(b1-4)]Man(a1-3)[GlcNAc(b1-4)][Neu5Ac(a2-6)Gal(b1-4)GlcNAc(b1-2)[Neu5Ac(a2-6)Gal(b1-4)GlcNAc(b1-6)]Man(a1-6)]Man(b1-4)GlcNAc(b1-4)GlcNAc
# Procedure, shortened: as §1
# [38] = target: Neu5Ac(a2-6)Gal(b1-4)GlcNAc(b1-2)[Neu5Ac(a2-6)Gal(b1-4)GlcNAc(b1-4)]Man(a1-3)[GlcNAc(b1-4)][Neu5Ac(a2-6)Gal(b1-4)GlcNAc(b1-4)Man(a1-6)]Man(b1-4)GlcNAc(b1-4)GlcNAc
# Procedure, shortened: as §1
# [39] = target: Neu5Ac(a2-6)Gal(b1-4)GlcNAc(b1-2)[Neu5Ac(a2-6)Gal(b1-4)GlcNAc(b1-6)]Man(a1-6)[Neu5Ac(a2-6)Gal(b1-4)GlcNAc(b1-2)Man(a1-3)][GlcNAc(b1-4)]Man(b1-4)GlcNAc(b1-4)GlcNAc
# Procedure, shortened: as §1
# [40] = target: Neu5Ac(a2-6)Gal(b1-4)GlcNAc(b1-3)Gal(b1-3)GlcNAc
# Procedure, shortened: as §1
# [41] = target: Neu5Ac(a2-6)Gal(b1-4)GlcNAc(b1-3)Gal(b1-4)GlcNAc
# Procedure, shortened: as §1
# [42] = target: Neu5Ac(a2-6)Gal(b1-4)GlcNAc(b1-3)Gal(b1-4)GlcNAc(b1-2)Man(a1-3)[Neu5Ac(a2-6)Gal(b1-4)GlcNAc(b1-3)Gal(b1-4)GlcNAc(b1-2)Man(a1-6)]GalNAc
# Procedure, shortened: as §1
# [43] = target: Neu5Ac(a2-6)Gal(b1-4)GlcNAc(b1-3)Gal(b1-4)GlcNAc(b1-3)Gal(b1-4)GlcNAc
# Procedure, shortened: as §1
binder,measurement,setting,value
"Epa1-NP-mutant-Y228A (Candida glabrata), Q6VBJ0 (protein) MILNPALFLNKCVCIYTTLILLLLTNGGYATSSNDISLASKDPTTFPLGCSPDITTPKKGLSMELYSYDFRKKGSYPCWDAAYLDPNYPRTGYKSHRLLAKVDGVTGNINFYYHATKGCTPQLGHLPASYNYPKPLTMTNFTMLLYGYFRPKVTGFHTFTISADDLLFVNFGAGNAFDCCRRDSSADHFGNYQAYAIWGSKTAKDELTVHLDAGVYYPIRLFYNNREADGALSFTFKTESNENTVSDFSEYFFSLDDTEEGCPGLISYDSSCASVKTSKIIGIDYHTETPNENLVPITKTIYHLGIPCTGTTTTPLCGSGFYDPLANKCVTINTSSTSSVTKTTSHTTSKEVSFHSSISSQKTLIPKSIPSPYGPIKSQSIPTEMETSSEISSSEYAFSDVISTPSHSPYTKKHSSLNSSSYTSTVIHSLTSYSISQGIFSTSLSEQNITSKSSTDKFSTATSMSNNITQSSIIISQFSTNNENYTTTSMHTSSDKISTETLNNSISTTTSILFSNSSTILKNNTTIISSDKDTHYHPVNPTIVCSTNKTEIICASITQPSISNSNNHWSSSVLKFNSTTVRSTLPSSAGSNETSINVPFSSSTESNTSTSSTSTSNSKMVRSTLPSSAGSNETSISVPFSSSTESNTSTSSTSTSNSKMVRSTLPSSAGSNETSINVPFSSSTESNTSTSSTSTSNSKTVRSTPFSSAGIIMTSLSQRNNKSASSYASSNSKCYNTADSCRKVHSTPSYLLTSSYTSEGVDYDCSLVSTKLKINDTNCVNNKHTTKSCLKTSVTTTIPTLEIKTARKSSSNTIGLHSYPTSSPNKSISSAPIIGYISSFKTIKTASPSYQTSDLTTITTITSLNNPGSTAVENTHESNDKSRKTSSNDISSKHSVIKETKDAVESSNKSHQTNTLKCSSIIIASSSHNSYESLGGTTLTLTLSKVYSPQNNDTLPFLEISEVNPSRTVLPESSKMMQYLTSTEERNKTARNTIATNIVSISTFHFEGEGNAIRMGYTQLLLMLIGIIVMNIGT",glycan array binding signal (z-score),[1],-0.181
same,glycan array binding signal (z-score),[2],-0.085
same,glycan array binding signal (z-score),[3],-0.158
same,glycan array binding signal (z-score),[4],-0.24
same,glycan array binding signal (z-score),[5],-0.331
same,glycan array binding signal (z-score),[6],-0.209
same,glycan array binding signal (z-score),[7],-0.274
same,glycan array binding signal (z-score),[8],-0.259
same,glycan array binding signal (z-score),[9],-0.142
same,glycan array binding signal (z-score),[10],-0.299
same,glycan array binding signal (z-score),[11],0.221
same,glycan array binding signal (z-score),[12],-0.086
same,glycan array binding signal (z-score),[13],-0.157
same,glycan array binding signal (z-score),[14],-0.057
same,glycan array binding signal (z-score),[15],-0.249
same,glycan array binding signal (z-score),[16],-0.304
same,glycan array binding signal (z-score),Neu5Ac(a2-3)GalNAc,-0.049
same,glycan array binding signal (z-score),[17],-0.271
same,glycan array binding signal (z-score),[18],-0.194
same,glycan array binding signal (z-score),[19],-0.122
same,glycan array binding signal (z-score),[20],-0.181
same,glycan array binding signal (z-score),[21],-0.296
same,glycan array binding signal (z-score),Neu5Ac(a2-6)Gal,-0.224
same,glycan array binding signal (z-score),[22],-0.085
same,glycan array binding signal (z-score),Neu5Ac(a2-6)Gal(b1-4)Glc,-0.187
same,glycan array binding signal (z-score),[23],-0.241
same,glycan array binding signal (z-score),[24],-0.108
same,glycan array binding signal (z-score),[25],-0.236
same,glycan array binding signal (z-score),[26],-0.248
same,glycan array binding signal (z-score),[27],-0.313
same,glycan array binding signal (z-score),[28],-0.266
same,glycan array binding signal (z-score),[29],-0.111
same,glycan array binding signal (z-score),[30],-0.18
same,glycan array binding signal (z-score),[31],-0.261
same,glycan array binding signal (z-score),[32],-0.218
same,glycan array binding signal (z-score),[33],-0.208
same,glycan array binding signal (z-score),[34],-0.278
same,glycan array binding signal (z-score),[35],-0.16
same,glycan array binding signal (z-score),[36],-0.207
same,glycan array binding signal (z-score),[37],-0.157
same,glycan array binding signal (z-score),[38],-0.158
same,glycan array binding signal (z-score),[39],-0.155
same,glycan array binding signal (z-score),[40],-0.264
same,glycan array binding signal (z-score),[41],-0.313
same,glycan array binding signal (z-score),[42],-0.203
same,glycan array binding signal (z-score),[43],-0.307
